Consider 42 compounds from ChEMBL document CHEMBL4888484, “Replenishing the malaria drug discovery pipeline: Screening and hit evaluation of the MMV Hit Generation Library 1 (HGL1) against asexual blood stage Plasmodium falciparum ,using a nano luciferase reporter read-out” (2022).

Broadly, the % Inhibition is the relative decrease from the control value, in per cent.

About 540 (0.36%) of roughly 150,000 compounds showed an effect of 50% or more. Some of the results follow.

This experiment deals with Plasmodium falciparum. Description: Primary screen in NF54 nanoGlo assay, in single point, at 2uM, 72h; a lower Z score goes with more inhibition. Format: functional, Erythrocyte. To be noted: timepoint 72 hour.
As for `O=C(NC1CC1)c1ccc(-n2cnnn2)cc1`, the “% Inhibition” value is -3% and the Z score is 0.54.
Regarding `Cn1c(=O)c2c(nc(CCCN3CCCCC3)n2Cc2cccc(Br)c2)n(C)c1=O`, the “% Inhibition” value is on record as -37% and the Z score came to 4.35.
The matching figures for `CC(=O)Nc1ccc(S(=O)(=O)Nc2cnc3c(cnn3C(C)C)c2)cc1`: -3% and 0.41.
On the same counts, the results for `CO[C@@H](C)CS(=O)(=O)Nc1c(F)cc(Cl)cc1Cl` are -4% and 0.52.
For `CC1CCCCC1N1C(=O)[C@H]2C(C(=O)Nc3ccc(Cl)cc3)[C@H]3C=C[C@@]2(O3)C1C(=O)NC1CCCCC1` (some centres undefined), the “% Inhibition” value is recorded as -1% and the Z score came out at 0.23.
On the same counts, the results for `Cc1ncnc(OCC2CCN(Cc3nc4ccccc4[nH]3)CC2)c1C` are -11% and 1.28.
Turning to `O=S(=O)(c1cccc(-n2cnnn2)c1)N(CCO)CCN1CCOCC1`, the “% Inhibition” value is recorded as -12% and the Z score was determined as 1.41.
Turning to `Cc1nc2ncccn2c1C(=O)N1CCC(n2cc(CC(C)C)nn2)CC1`, the “% Inhibition” value was 10% and the Z score is given as -1.01.
For `CCc1csc(CCNC(=O)CCc2ccnn2C)n1`, the “% Inhibition” value is listed as -21% and the Z score came to 3.91.
As for `CCS(=O)(=O)C1CN(C(=O)c2ccnc(N(C)C)c2)C1`, the “% Inhibition” value is listed as -4% and the Z score is reported as 0.77.
On the same counts, the results for `CCOC(=O)N(C)C1CCN(C2Cc3ccccc3C2O)CC1` (centres undefined) are -12% and 1.09.
The matching figures for `Cc1nnc(NC[C@](C)(O)c2cccc(F)c2)nc1C`: -4% and 0.86.
On the same counts, the results for `CN1CCN(c2ccccc2NS(=O)(=O)Cc2ccccc2)CC1` are -12% and 1.03.
Turning to `COc1cccc(-c2cc3c(n2-c2ccc(C(=O)NC4CC4)cc2)CCCCC3)c1`, the “% Inhibition” value is -5% and the Z score is listed as 0.54.
The matching figures for `O=C(CN1CCc2nc(NC(=O)c3ccoc3)sc2C1)Nc1ccc(F)c(Cl)c1`: 4% and -0.5.
The matching figures for `O[C@@H]1C[C@H](Nc2nccs2)C[C@@H]1O`: -10% and 1.85.
The matching figures for `CCn1nc(-c2ccc(C)c(S(=O)(=O)N3CCN(C)CC3)c2)c2c(c1=O)CCCC2`: -12% and 1.91.
As to `COC[C@H]1CCCN1S(=O)(=O)N(C)Cc1nc(C)cs1`, the “% Inhibition” value is -19% and the Z score was 2.49.
The matching figures for `CC(C)=CCO[C@H]1CCOC[C@H]1NS(C)(=O)=O`: 5% and -0.79.
Consider `Cc1ccc(C(=O)N2CCC[C@H]2c2cnn(C)c2)cc1Oc1ccncc1`, for which the “% Inhibition” value is -10% and the Z score was 1.41.
The matching figures for `COc1ccc(CNC(=O)C2(N3CCOCC3)CCCC2)cc1OC`: 29% and -3.29.
The matching figures for `Cc1ccc(NS(=O)(=O)c2c(C)sc(C)c2-c2onc(C)c2C)c(Cl)c1`: -12% and 2.09.
Consider `CN(C[C@@H]1OCCN(C)[C@H]1c1ccccc1)C(=O)C1CCC(O)CC1` (some centres undefined), for which the “% Inhibition” value is recorded as -12% and the Z score is 1.71.
As to `Cc1cnc(C(=O)N[C@@H]2CCC[C@@H]2C(=O)N2CCCCCC2)cn1`, the “% Inhibition” value is -9% and the Z score amounted to 1.17.
On the same counts, the results for `CN(C(=O)CCNC(=O)c1cc(F)ccc1Br)C1C2CCOC2C1(C)C` (centres undefined) are -6% and 0.53.
On the same counts, the results for `O=C(N[C@H]1CCCCNC1=O)c1cc(C2CC2)nc2ccccc12` are -8% and 1.03.
The matching figures for `Cc1ncsc1C(=O)N[C@H]1CCOC[C@@H]1O`: -14% and 1.79.
As to `Cc1nn(C)c(C)c1CN(CC(=O)Nc1cnccn1)C(C)C`, the “% Inhibition” value was found to be 10% and the Z score is given as -1.32.
The matching figures for `O=C(CCc1c(F)cccc1Cl)N1CC(Nc2cnccn2)C1`: -6% and 0.7.
On the same counts, the results for `O=C(NCCCn1ccnc1)C1CCCCC1` are -8% and 1.09.
In the case of `Cc1noc(C)c1C(=O)NCc1nc(-c2cc(C3CC3)on2)no1`, the “% Inhibition” value was found to be 12% and the Z score is on record as -1.49.
The matching figures for `O=C(Nc1c2c(nn1-c1ccccc1)CS(=O)(=O)C2)[C@H]1CC(=O)N(c2ccc(F)cc2)C1`: -3% and 0.6.
On the same counts, the results for `NC(=O)[C@@H]1C[C@@H](F)CN1C(=O)c1ccc(Br)o1` are 0% and 0.
On the same counts, the results for `CC(C)(C#N)CNc1ccc(C(F)(F)F)nn1` are 2% and -0.41.
Take `Cc1cc(F)ccc1-c1c(-c2ccccc2)ncn1C[C@H]1COCCO1`: the “% Inhibition” value is 1% and the Z score is given as -0.17.
Turning to `C[C@@H](Cc1ccc(F)c(Br)c1)C(=O)NC1(C#N)CC1`, the “% Inhibition” value was -19% and the Z score came to 2.21.
The matching figures for `O=C(COc1ccccc1)NCC(=O)N1CC[C@H](C2CCOCC2)C1`: -6% and 0.99.
The matching figures for `O=C(CCn1cnnn1)N1C[C@@H]2CC[C@H]1CN(c1cnccn1)C2`: -1% and 0.07.
As for `O=C(Nc1ccc(Br)cc1F)N1CC2CCCC21` (centres undefined), the “% Inhibition” value was 1% and the Z score is given as -0.16.
The matching figures for `O=C(Nc1cnns1)N[C@@H]1C=CCCC1`: 8% and -1.
`CCN1CCCn2cc(S(=O)(=O)Nc3ccc(C)c(C)c3)cc2C1=O`: the “% Inhibition” value is given as 4% and the Z score is on record as -0.53.
On the same counts, the results for `O=C(NC1CC1)[C@@H]1CN(Cc2ccc(Cl)cc2F)C[C@H]1CO` are 0% and 0.04.
